# Out of some 310,000 compounds screened, about 2,200 (0.71%) showed an effect of 50% or more. Effects have a minus sign here. This is one part of the list.
# Molecular target: human ether-à-go-go-related gene (hERG) potassium channel (human, UniProt Q12809)
# Assay: primary screen, population patch clamp on CHO cells stably expressing hERG
# human ether-à-go-go-related gene (hERG) potassium channel, sequence (Q12809 whole entry, looked up): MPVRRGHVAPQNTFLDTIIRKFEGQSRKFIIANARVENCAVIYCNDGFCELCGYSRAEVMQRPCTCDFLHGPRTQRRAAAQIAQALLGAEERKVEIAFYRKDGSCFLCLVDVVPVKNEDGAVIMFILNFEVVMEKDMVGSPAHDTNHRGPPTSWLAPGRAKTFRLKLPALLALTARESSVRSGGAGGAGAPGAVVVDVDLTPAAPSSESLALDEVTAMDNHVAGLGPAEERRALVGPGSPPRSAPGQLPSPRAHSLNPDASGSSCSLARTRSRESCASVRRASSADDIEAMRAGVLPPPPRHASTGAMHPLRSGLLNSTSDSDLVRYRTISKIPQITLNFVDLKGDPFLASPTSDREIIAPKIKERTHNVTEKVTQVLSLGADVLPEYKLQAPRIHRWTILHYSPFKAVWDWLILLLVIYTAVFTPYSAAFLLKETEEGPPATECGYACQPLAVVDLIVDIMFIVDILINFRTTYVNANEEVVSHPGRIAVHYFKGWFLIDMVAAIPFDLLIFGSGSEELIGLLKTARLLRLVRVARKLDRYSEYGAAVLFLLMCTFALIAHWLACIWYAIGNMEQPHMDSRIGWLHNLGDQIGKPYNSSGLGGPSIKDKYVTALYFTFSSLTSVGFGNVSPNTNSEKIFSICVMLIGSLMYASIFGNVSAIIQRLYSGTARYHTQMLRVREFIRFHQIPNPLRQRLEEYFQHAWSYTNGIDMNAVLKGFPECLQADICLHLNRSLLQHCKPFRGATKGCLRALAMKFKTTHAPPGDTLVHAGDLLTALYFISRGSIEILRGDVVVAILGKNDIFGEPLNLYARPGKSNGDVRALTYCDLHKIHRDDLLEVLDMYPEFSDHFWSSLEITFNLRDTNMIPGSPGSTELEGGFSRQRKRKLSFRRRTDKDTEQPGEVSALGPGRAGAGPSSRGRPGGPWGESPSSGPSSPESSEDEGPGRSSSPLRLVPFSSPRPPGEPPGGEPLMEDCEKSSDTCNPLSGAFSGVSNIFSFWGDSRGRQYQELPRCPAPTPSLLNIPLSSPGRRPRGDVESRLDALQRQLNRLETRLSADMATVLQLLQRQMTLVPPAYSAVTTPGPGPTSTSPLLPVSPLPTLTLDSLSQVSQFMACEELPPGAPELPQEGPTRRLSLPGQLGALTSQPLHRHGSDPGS
row,Compound,"hERG current change (%, negative = inhibition) at 1uM"
1,Cc1cc(C)n(-c2nc3c(c(=O)n(C)c(=O)n3C)n2C)n1,10.8%
2,COc1cc(C(=O)Nc2cccc(C)n2)ccc1OCC(=O)N1CCOCC1,3.9%
3,COC(=O)c1sc(N/N=C/c2ccc(C(C)C)cc2)nc1C,11.9%
4,Cc1ccccc1Nc1nnc(SCC(=O)Nc2ccccc2[N+](=O)[O-])s1,12.1%
5,CCS(=O)(=O)N1Cc2ccccc2CC1C(=O)Nc1ccc(OC)cc1OC (centres unmarked),6.08%
6,CCOC(=O)C1=C(c2ccccc2)NC(SCC(=O)Nc2ccccc2C)=C(C#N)C1c1ccco1 (centres unmarked),-0.374%
7,Nc1c(C(=O)NCCc2ccccc2)nnn1Cc1ccc(Cl)cc1,12.7%
8,COc1ccccc1CNC(=O)CN1C(=O)CSc2ccc(S(=O)(=O)N3CCCC3)cc21,11.5%
9,O=C(Cc1ccsc1)Nc1ccc2c(c1)OCO2,5.15%
10,CCCCCCCCCCCCOC(=O)C[N+](C)(C)C.[Cl-],-9.16%
11,CC(C)(C)c1cc(NC(=O)C2CCCO2)no1 (centres unmarked),2.05%
12,O=C(NC1CCCCC1)c1ccc(S(=O)(=O)c2ccccc2Cl)c([N+](=O)[O-])c1,6.02%
13,CC(C)(C)C1CCc2c(sc(NC(=O)C3CC=CCC3C(=O)O)c2C#N)C1 (centres unmarked),10.9%
14,COc1ccccc1NC(NC(=O)c1cccnc1)C(Cl)(Cl)Cl (centres unmarked),-12.5%
15,Cc1[nH]n(C)c(=O)c1C(=O)c1c(-c2c(Cl)cccc2Cl)noc1C,4%
16,CCOc1ccc(C2CC(c3ccc(F)cc3)n3ncnc3N2)cc1 (centres unmarked),4.85%
17,Cc1nn(CC(=O)NCC2CCCO2)c(=O)c2ccccc12 (centres unmarked),8.43%
18,Cc1cc(S(=O)(=O)N2CCCCC2)ccc1OCC(=O)Nc1ccccc1,3.39%
19,COc1cccc(CNC(=O)CCCCCNC(=O)N2CCn3c2nc2ccccc23)c1,5.94%
20,CC(NC(=O)C12CC3CC(CC(C3)C1)C2)C(=O)NCCN(C)C.Cl (centres unmarked),3.84%
21,COc1ccc(/C=C(/NC(=O)c2ccc(C)cc2)c2nc3ccccc3[nH]2)cc1OC,8.94%
22,O=C(O)c1c(-c2ccccc2)nnc2ccccc12,14.7%
23,CCN(CC)S(=O)(=O)c1ccc(C)c(NC(=O)CN2CCN(Cc3ccccc3)CC2)c1.Cl,-44.6%

row,Compound,"hERG current change (%, negative = inhibition) at 1uM"
1,N#CC1(NC(=O)CSc2ccccn2)CCCCC1,7.24%
2,Cc1ccc(-n2nc3c(N4CCC(C(=O)NCCc5ccccc5C)CC4)nnc(C)c3c2C)cc1,6%
3,c1ccc(Oc2ccc(-c3ccn[nH]3)cc2)cc1,-2.29%
4,O=C(Nc1cccc(Cl)c1)Nc1ccc(Cl)cn1,11.3%
5,Cc1ccccc1NC(=O)CSc1nc2ccccc2c(=O)n1C,7.96%
6,CCc1nn(C(C)C(=O)N2CCN(c3ccc(OC)cc3)CC2)c(=O)c2cc3occc3n12 (centres unmarked),-0.509%
7,COc1cc(C(=O)Nc2nnc(C3=COCCO3)o2)cc(OC)c1OC,20.4%
8,O=C(Cc1ccccc1[N+](=O)[O-])NCc1ccncc1,8.8%
9,Cc1cc[n+](CC(=O)c2ccccc2)c2ccccc12.[Br-],6.22%
10,O=C(NCCc1csc(-c2cccnc2)n1)c1ccc(Br)o1,3.63%
11,COc1ccc(NC(=O)CCCn2c(=O)c3sccc3n(Cc3ccccc3)c2=O)cc1,4.05%
12,CC(C)Oc1cc(N)c(Cl)cc1Cl,15.8%
13,CC(=O)c1cccc(NC(=O)c2ccco2)c1,13.4%
14,COc1ccc(-n2c(=O)c3ccccc3n(CC(=O)NC3CCCCC3)c2=O)cc1,18.3%
15,O=S1(=O)CCOCCCN1Cc1ccccc1,7.87%
16,Cc1ccc(NC(=O)CNC(=O)c2cccs2)nc1,12.4%
17,CCOC(=O)C1C(=O)NC(c2ccccc2)=NC1c1ccc(C(C)C)cc1 (centres unmarked),1.93%
18,CC1(C)CC(=O)C(C=NCc2ccccn2)=C(O)C1,12.6%
19,O=C(CN1CCN(C/C=C/c2ccccc2)CC1)NCc1ccc(Cl)cc1,-72.5%
20,COC(=O)Cn1c(=NC(=O)C(C)(C)C)sc2c(C)cc(C)cc21,0.506%
21,Cc1cc(NC(=O)CSCC(=O)Nc2nc3c(C)cccc3s2)no1,6.68%
22,CCc1cc(=O)oc2cc(C)cc(OC(C)C(=O)NC3CC(C)(C)NC(C)(C)C3)c12 (centres unmarked),29.3%
23,CCN(CC)c1ccc(/C=N/NC(=O)CN2CCCc3ccccc32)cc1,2.55%

row,Compound,"hERG current change (%, negative = inhibition) at 1uM"
1,COc1ccc2nc(-c3ccc(N)cc3)[nH]c2c1,10.4%
2,O=C(NNS(=O)(=O)c1ccc(F)cc1)C1CCN(Cc2cccc(F)c2)CC1,5.01%
3,O=C(CCCn1c(SCc2cc(=O)n3cc(Cl)ccc3n2)nc2ccccc2c1=O)NCC1CCCO1 (centres unmarked),-10.1%
4,O=C(NC1CCCc2ccccc21)c1ccc([N+](=O)[O-])cc1 (centres unmarked),-10.3%
5,Cc1ccc(-c2nc(N/N=C/c3cccnc3)c3ccccc3n2)cc1,10.3%
6,Cn1c(-c2ccc(F)cc2)cnc1NCc1cccc(F)c1,-7.72%
7,COc1ccccc1Nc1ccc(Nc2ccccc2OC)nn1,10.2%
8,O=C(CCN1C(=O)NC2(CCCC2)C1=O)Nc1ccc(-c2nc3ccccc3s2)cc1,12.9%
9,Cc1nc2ccccn2c1C(=O)Nc1ccc2c(c1)OCCO2,1.92%
10,O=C1c2ccccc2C(=O)C1c1ccc(Br)cc1,17.3%
11,COc1cc(C(CCN2CCN(c3ccccc3)CC2)c2c(OC)cc(OC)c3c(C)cc(=O)oc23)cc(OC)c1OC (centres unmarked),9.23%
12,CN1CCN(C(=O)c2ccccc2NC(=O)CCN2C(=O)c3ccccc3C2=O)CC1,7.75%
13,Cc1ccccc1NC(=S)NNC(=O)c1cccc(Br)c1,1.6%
14,CC(C(=O)Nc1ccccc1Br)N1c2cccc3cccc(c23)S1(=O)=O (centres unmarked),18.5%
15,CC(Oc1cccc(Cl)c1)C(=O)NCc1ccc(S(N)(=O)=O)cc1 (centres unmarked),14.4%
16,CCCOc1ccc(-c2nc(OC)c3ccccc3n2)cc1,2.6%
17,CCCn1nnc(NC(=S)NC(=O)Cc2ccccc2)n1,10%
18,O=C(CN(Cc1ccco1)S(=O)(=O)c1cccs1)Nc1ccccc1C(F)(F)F,5.34%
19,O=C(O)CSCC(=O)N1CCc2c([nH]c3ccccc23)C1C(F)(F)F (centres unmarked),9.86%
20,O=C(C1CCC(CNc2c(N3CCCCC3)c(=O)c2=O)CC1)N1CCCC1 (centres unmarked),2.53%
21,Cl.OCCNc1nc(N2CCCCC2)nc2ccccc12,-18.4%
22,CCc1ccc(NS(=O)(=O)c2ccc(C)c(C(=O)N3CCOCC3)c2)cc1,15.8%
23,COc1cccc(=O)c2c(C)n(CC(=O)c3ccccc3)c(C)c12,5.6%

row,Compound,"hERG current change (%, negative = inhibition) at 1uM"
1,O=C1NCCCC1C(=O)NCCN1C(=O)CCC1=O (centres unmarked),2.25%
2,O=[N+]([O-])c1cnn(-c2nc(-c3ccccc3)cc(C(F)(F)F)n2)c1,10.7%
3,C/C(=N\S(=O)(=O)c1ccc(C)cc1)NC(=S)Nc1ccccc1,4.4%
4,COc1ccc(-c2cn(-c3ccc(SC(F)F)cc3)c3[n+]2CCC3)cc1OC.[Br-],-27%
5,CCOC(=O)c1c(NC(=O)/C=C/c2ccc(C)o2)sc(C)c1C,4.18%
6,CC(=O)Nc1ccc(-c2csc(NC(=O)CC(NC(C)=O)c3ccccc3)n2)cc1 (centres unmarked),16.7%
7,O=C(CN1CCN(c2cccc(Cl)c2)CC1)NC1CCCc2ccccc21 (centres unmarked),13.2%
8,O=C(CCNC(=O)c1ccc(Cl)cc1)Nc1ncccc1O,9.12%
9,O=C(CCc1ccccc1)NNC(=O)C1CCCCC1,5.85%
10,CC1CC(C)(C)CC2(C1)NC(=O)N(CC(=O)NCCc1ccc3c(c1)OCCO3)C2=O (centres unmarked),10.1%
11,CCCCSc1ncnc2[nH]ncc12,3.41%
12,CCOC(=O)CN1C(=O)C(O)(CC(=O)c2ccc3c(c2)CCCC3)c2ccccc21 (centres unmarked),18.9%
13,Cc1ccccc1Oc1ccc(Oc2ccccc2C)nn1,13%
14,CC(C)Sc1nc2c(c(=O)n1-c1ccc(F)cc1)SCC2,15.4%
15,CCOc1cc(C(=O)Nn2cnnc2)cc(OCC)c1OCC,8.51%
16,COc1ccc(N2C(=O)CC(N3CCN(c4nc5ccccc5s4)CC3)C2=O)cc1 (centres unmarked),-5.74%
17,Cc1ccc(C(=O)Cn2c(=N)n(CCN3CCOCC3)c3ccccc32)cc1.[Br-],-20.3%
18,Cc1ccc(CNC(=O)C2CCC(=O)N(Cc3cccc(C(F)(F)F)c3)C2)o1 (centres unmarked),-12%
19,Cc1nn(CC(=O)N2CCC3(CC2)OCCO3)c(=O)c2cc3ccccc3n12,19.4%
20,COc1cc2c3nnc(-c4ccc(F)cc4)c-3cn(Cc3ccc(C)cc3)c2cc1OC,13.5%
